Data published in the supplement of paper PMC12355420.
Counter-ions that a name gives are not always drawn. The list shows a part of the results. Single values are uncertain, as repeats are few or missing.

Test system: HeLa VPS33A reporter cells
Test: relative cell viability (CellMask signal) vs DMSO (fraction of DMSO); HeLa model of a glycosaminoglycan (GAG) storage disease; KI is knock-in and KO knock-out; SDC1 is syndecan 1; higher = less cytotoxic
Conditions: 50 µM; 24 h
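Note: primary screen of an FDA-approved drug library in HeLa reporter cells in 96-well format, CellMask signal normalized to DMSO-treated wells set as 1, under 0.5 deemed highly cytotoxic.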

Row | SMILES | relative cell viability
1 | Cn1ncc(Cl)c1-c1cc(C(=O)N[C@H](CN)Cc2cccc(F)c2)sc1Cl [Afuresertib] | 0.00421
2 | CC(C)(C)NC(=O)[C@@H]1C[C@@H]2CCCC[C@@H]2CN1C[C@@H](O)[C@H](Cc1ccccc1)NC(=O)[C@H](CC(N)=O)NC(=O)c1ccc2ccccc2n1 [Saquinavir mesylate] | 0.00371
3 | CN(C)CCCN1c2ccccc2CCc2ccc(Cl)cc21 [Clomipramine HCl] | 0.00484
4 | N=C(NCCCCCCNC(=N)NC(=N)Nc1ccc(Cl)cc1)NC(=N)Nc1ccc(Cl)cc1 [Chlorhexidine digluconate] | 0.0484
5 | CN(C)CC/C=C1/c2ccccc2Sc2ccc(Cl)cc21 [Chlorprothixene] | 0.00547
6 | CCOc1ccc2nc3cc(N)ccc3c(N)c2c1 [Ethacridine lactate monohydrate] | 0.0398
7 | CC1(C)CC[C@]2(C(=O)O)CC[C@]3(C)C(=CC[C@@H]4[C@@]5(C)CC[C@H](O)C(C)(C)[C@@H]5CC[C@]43C)[C@@H]2C1 [Oleanolic acid] | 0.0892
8 | N.N.O=C([O-])C[O-].[Pt+2] [Nedaplatin] | 0.231
9 | CCCCc1oc2ccc(NS(C)(=O)=O)cc2c1C(=O)c1ccc(OCCCN(CCCC)CCCC)cc1 [Dronedarone] | 0.00463
10 | C#CCN(C)CCCOc1ccc(Cl)cc1Cl [Clorgyline (hydrochloride)] | 0.00627
11 | Cc1ccc(NC(=O)c2ccc(CN3CCN(C)CC3)cc2)cc1Nc1nccc(-c2cccnc2)n1 [Imatinib Mesylate (STI571)] | 0.00522
12 | CO[C@H]1C[C@@H]2CC[C@@H](C)[C@@](O)(O2)C(=O)C(=O)N2CCCC[C@H]2C(=O)O[C@H]([C@H](C)C[C@@H]2CC[C@@H](OCCO)[C@H](OC)C2)CC(=O)[C@H](C)/C=C(\C)[C@@H](O)[C@@H](OC)C(=O)[C@H](C)C[C@H](C)/C=C/C=C/C=C/1C [Everolimus (RAD001)] | 0.00607
13 | CNCC[C@H](Oc1cccc2ccccc12)c1cccs1 [Duloxetine HCl] | 0.00649
14 | CN1CCN(CCOc2cc(OC3CCOCC3)c3c(Nc4c(Cl)ccc5c4OCO5)ncnc3c2)CC1 [Saracatinib (AZD0530)] | 0.00679
15 | C=CCc1ccc(O)c(-c2ccc(O)c(CC=C)c2)c1 [Honokiol] | 0.0101
16 | CC[C@@H]1C(=O)N(C)c2cnc(Nc3ccc(C(=O)N[C@H]4CC[C@H](N5CCN(CC6CC6)CC5)CC4)cc3OC)nc2N1C(C)C [BI6727 (Volasertib)] | 0.00571
17 | CCCCCCCCCCCCCCCC[N+](C)(C)C [Cetrimonium Bromide (CTAB)] | 0.00465
18 | O=C(Nc1nc2cccc(-c3ccc(CN4CCS(=O)(=O)CC4)cc3)n2n1)C1CC1 | 0.328
19 | CCCCCCCCOc1ccccc1C(=O)Nc1ccc(C(=O)OCC[N+](C)(CC)CC)cc1 [Otilonium Bromide] | 0.00411
20 | C/C(=C\c1csc(C)n1)[C@@H]1C[C@@H]2O[C@]2(C)CCC[C@H](C)[C@H](O)[C@@H](C)C(=O)C(C)(C)[C@@H](O)CC(=O)N1 [Ixabepilone] | 0.0657
21 | CCOc1nc2cccc(C(=O)OC(C)OC(=O)OC3CCCCC3)c2n1Cc1ccc(-c2ccccc2-c2nn[nH]n2)cc1 (centres undefined) [Candesartan Cilexetil] | 0.0199
22 | CN(C/C=C/C#CC(C)(C)C)Cc1cccc2ccccc12 [Terbinafine] | 0.343
23 | O=C(O)c1ccccc1 [Benzoic Acid] | 0.403
24 | C[C@H]1[C@H](C)CC[C@]2(C(=O)O)CC[C@]3(C)C(=CC[C@@H]4[C@@]5(C)CC[C@H](O)C(C)(C)[C@@H]5CC[C@]43C)[C@H]12 [Ursolic acid] | 0.0085
25 | COc1cc2c(Oc3ccc4[nH]c(C)cc4c3F)ncnc2cc1OCCCN1CCCC1 [Cediranib (AZD217)] | 0.00517
26 | CCC1C=C(C)CC(C)CC(OC)C2OC(O)(C(=O)C(=O)N3CCCCC3C(=O)OC(C(C)=CC3CCC(O)C(OC)C3)C(C)C(O)CC1=O)C(C)CC2OC (centres undefined) [Ascomycin(FK 520)] | 0.00688
27 | C=C1/C(=C\C=C2/CCC[C@]3(C)[C@@H]([C@H](C)/C=C/[C@@H](O)C4CC4)CC[C@@H]23)C[C@@H](O)C[C@@H]1O [Calcipotriol] | 0.00516
28 | Cc1coc2c1C(=O)C(=O)c1c-2ccc2c1CCCC2(C)C [Tanshinone IIA] | 0.441
29 | COc1cc2c(cc1O)CC[C@@H]1[C@@H]2CC[C@]2(C)[C@@H](O)CC[C@@H]12 [2-Methoxyestradiol (2-MeOE2)] | 0.324
